We go through 53 compounds from article PMC4336329 (PLoS ONE, 2015).

SMILES strings stand for the structures. The campaign covered roughly 310,000 compounds. About 14,000 (4.5%) showed an effect of 50% or more. The effect is printed as a negative number. This is one part of the list. *1 amine or outer side, *2 acyl side, *3 side chain or, on linkers, in order; H or OH if unused. Where a SMILES comes first, the peptide text is derived from it. Bridges are numbered along the chain shown (N, C = ends). [ ]: non-standard residue; d: D form. ξ: configuration not given here. hSer(Ph(2-I,4-NO2,6-CO)) = O=C([C@H](CCOc1c(I)cc([N+](=O)[O-])cc1C(=O)[*:3])N[*:1])[*:2]; ξD = NC(CC(=O)O)C(=O)O
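Note: peak tail current of the secondary pulse compared with the same well before compound.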

For this test, the target named is human ether-à-go-go-related gene (hERG) potassium channel (human, UniProt Q12809). The test is described as follows: primary screen, population patch clamp on CHO cells stably expressing hERG.
Chain of human ether-à-go-go-related gene (hERG) potassium channel (Q12809 whole entry, looked up): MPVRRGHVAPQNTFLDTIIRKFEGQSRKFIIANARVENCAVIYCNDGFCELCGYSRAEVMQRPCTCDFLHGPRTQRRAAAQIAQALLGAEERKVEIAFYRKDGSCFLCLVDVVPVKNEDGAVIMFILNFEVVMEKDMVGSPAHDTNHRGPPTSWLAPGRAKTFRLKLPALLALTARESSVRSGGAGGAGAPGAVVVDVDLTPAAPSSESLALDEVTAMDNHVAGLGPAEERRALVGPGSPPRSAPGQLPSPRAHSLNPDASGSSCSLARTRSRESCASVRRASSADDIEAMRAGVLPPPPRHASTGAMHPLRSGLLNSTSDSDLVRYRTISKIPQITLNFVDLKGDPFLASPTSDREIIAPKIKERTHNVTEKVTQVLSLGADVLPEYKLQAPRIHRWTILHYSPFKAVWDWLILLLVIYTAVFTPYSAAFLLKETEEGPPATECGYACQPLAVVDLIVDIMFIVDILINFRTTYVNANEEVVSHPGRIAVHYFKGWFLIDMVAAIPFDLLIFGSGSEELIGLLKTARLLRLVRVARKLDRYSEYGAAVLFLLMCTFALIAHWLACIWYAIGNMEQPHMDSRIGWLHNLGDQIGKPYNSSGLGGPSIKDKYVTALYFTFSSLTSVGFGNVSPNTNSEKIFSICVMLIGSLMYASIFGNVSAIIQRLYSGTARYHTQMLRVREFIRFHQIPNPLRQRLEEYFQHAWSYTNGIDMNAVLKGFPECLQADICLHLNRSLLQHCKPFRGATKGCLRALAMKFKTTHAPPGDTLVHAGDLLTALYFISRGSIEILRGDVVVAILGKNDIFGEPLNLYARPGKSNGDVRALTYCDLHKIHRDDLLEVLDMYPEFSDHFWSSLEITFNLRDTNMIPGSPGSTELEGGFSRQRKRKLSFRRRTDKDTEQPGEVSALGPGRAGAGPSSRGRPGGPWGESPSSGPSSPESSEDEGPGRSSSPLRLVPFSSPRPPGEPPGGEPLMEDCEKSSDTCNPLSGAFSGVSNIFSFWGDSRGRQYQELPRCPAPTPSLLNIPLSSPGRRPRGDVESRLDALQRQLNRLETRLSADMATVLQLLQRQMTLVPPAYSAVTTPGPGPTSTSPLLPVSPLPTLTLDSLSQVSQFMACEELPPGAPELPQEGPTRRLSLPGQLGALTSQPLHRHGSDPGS
`Cn1c(SCC(=O)NCc2cccs2)nnc1-c1ccc(O)cc1`: the “hERG current change (%, negative = inhibition) at 10uM” value is 27.7%.

As for `CCOC(=O)c1cccc(NC(=O)CCc2nnc3ccc(N4CCOCC4)nn23)c1`, the “hERG current change (%, negative = inhibition) at 10uM” value is on record as 7.99%.

With `COc1ccc(/C(C)=N/Nc2nccnc2Cl)cc1`, the “hERG current change (%, negative = inhibition) at 10uM” value is recorded as -27%.

Turning to `Cc1c(OC(C)C(=O)NCCN2CCOCC2)ccc2c(-c3ccccc3)cc(=O)oc12` (centres unmarked), the “hERG current change (%, negative = inhibition) at 10uM” value is on record as -39.7%.

With `Cc1ccc2cc(CN(Cc3ccco3)C(=O)NC3CCCCC3)c(=O)[nH]c2c1C`, the “hERG current change (%, negative = inhibition) at 10uM” value is recorded as -37%.

With `Cc1ccc(NC(=O)CN2C(=O)NC3(CCCc4ccccc43)C2=O)c([N+](=O)[O-])c1` (centres unmarked), the “hERG current change (%, negative = inhibition) at 10uM” value is listed as -75.6%.

As for `CC(C)(C)NC(=O)c1cc(-c2ccccc2)n[nH]1`, the “hERG current change (%, negative = inhibition) at 10uM” value was 11.5%.

On to `COc1ccc(C(=O)Nc2ccc(S(=O)(=O)Nc3onc(C)c3C)cc2)cc1`, for which the “hERG current change (%, negative = inhibition) at 10uM” value stood at 9.91%.

As for `CCOC(=O)C1CCN(S(=O)(=O)c2ccc(C)c(C)c2)CC1`, the “hERG current change (%, negative = inhibition) at 10uM” value is on record as -6.16%.

On to `NC(=O)C(CC(=O)O)NC(=O)[C@@H]1CCOc2c(I)cc([N+](=O)[O-])cc2C(=O)N[C@@H](CCC(=O)O)C(=O)N[C@@H](CO)C(=O)N1` (some centres unmarked) (ES[hSer(Ph(2-I,4-NO2,6-CO))][ξD]-NH2; lactam N-3), for which the “hERG current change (%, negative = inhibition) at 10uM” value is given as -5.73%.

As to `CCOC(=O)N1CCC(NC(=O)CS(=O)Cc2nc(-c3ccccc3C)oc2C)CC1` (centres unmarked), the “hERG current change (%, negative = inhibition) at 10uM” value is reported as -42.3%.

As for `Cc1ccc(-c2nnc(SCC#CCOC(=O)c3ccco3)o2)cc1`, the “hERG current change (%, negative = inhibition) at 10uM” value was -6.36%.

As for `Cc1cc(C)c2c(=O)cc(C(F)F)oc2c1`, the “hERG current change (%, negative = inhibition) at 10uM” value came to 0.766%.

As for `CCOC(=O)c1cc(CC)sc1NC(=O)CC1Sc2ccc(C(F)(F)F)cc2NC1=O` (centres unmarked), the “hERG current change (%, negative = inhibition) at 10uM” value stood at 21.1%.

In the case of `O=C(OCc1ccc(Cl)c(Cl)c1)c1cccnc1Cl`, the “hERG current change (%, negative = inhibition) at 10uM” value is given as 11.2%.

With `C=CCSC1=C(C#N)C(c2ccccc2Cl)C(C(=O)c2cccs2)C(O)(C(F)(F)F)N1` (centres unmarked), the “hERG current change (%, negative = inhibition) at 10uM” value is listed as -4.55%.

As to `O=C(CSCCNS(=O)(=O)c1ccccc1)Nc1ccccc1`, the “hERG current change (%, negative = inhibition) at 10uM” value worked out at 2.15%.

With `CC1CN(C(=O)c2cccc(Oc3ccccc3)c2)CC(C)O1` (centres unmarked), the “hERG current change (%, negative = inhibition) at 10uM” value is recorded as 12.1%.

As for `CC(=O)c1ccc(NC(=S)N2CCCC2)cc1`, the “hERG current change (%, negative = inhibition) at 10uM” value was found to be 7.4%.

With `CCCCN1C(=O)N(c2ccccc2Cl)C(C)(O)CC1(C)C` (centres unmarked), the “hERG current change (%, negative = inhibition) at 10uM” value worked out at 11.5%.

As for `Cc1cccc(NC(=O)c2ccc(S(=O)(=O)C(F)F)cc2)c1C`, the “hERG current change (%, negative = inhibition) at 10uM” value was found to be 8.55%.

`CN(C)c1nc(SCc2ccccc2Cl)nc2c1CCCC2`: the “hERG current change (%, negative = inhibition) at 10uM” value stood at 5.96%.

For `COc1ccc(-c2noc(N3CCC(C(=O)Nc4ccc(F)cc4)CC3)n2)cc1`, the “hERG current change (%, negative = inhibition) at 10uM” value is listed as -6.33%.

Turning to `N/C(=N\OC(=O)Cc1cccs1)c1ccc([N+](=O)[O-])cc1`, the “hERG current change (%, negative = inhibition) at 10uM” value is recorded as -24.4%.

In the case of `CC(=O)Nc1cc(C(=O)N2CCC3(CC2)OCCO3)ccc1Sc1ccc(C)cc1`, the “hERG current change (%, negative = inhibition) at 10uM” value was -16%.

Regarding `C=CCn1c(-c2cccnc2Cl)nc2cc(Cl)c(Cl)cc21`, the “hERG current change (%, negative = inhibition) at 10uM” value was -4.91%.

For the compound `O=C(COC(=O)c1cncc(Br)c1)NC1CCCC1`, the “hERG current change (%, negative = inhibition) at 10uM” value was found to be 3.31%.

As to `COc1ccc(NS(=O)(=O)c2cccc(NC(=O)NC3CCCCC3)c2)cc1`, the “hERG current change (%, negative = inhibition) at 10uM” value is -4.21%.

Turning to `N/C(Cc1ccc([N+](=O)[O-])cc1)=N\OC(=O)c1cccc(Br)c1`, the “hERG current change (%, negative = inhibition) at 10uM” value is -58%.

Consider `C[C@@H](Oc1ccccc1)c1nnn(Cc2ccccc2)c1-c1c([C@@H](C)Oc2ccccc2)nnn1Cc1ccccc1`, for which the “hERG current change (%, negative = inhibition) at 10uM” value is -2.33%.

Take `CC(C)Oc1ccc(CN2CCC(n3nccc3NC(=O)CCc3ccccc3)CC2)cc1`: the “hERG current change (%, negative = inhibition) at 10uM” value is -82.3%.

Consider `COc1ccccc1OCc1ccc(C(=O)NN)cc1`, for which the “hERG current change (%, negative = inhibition) at 10uM” value was 0.68%.

On to `CC(C)CNC(=O)NC(=O)COC(=O)COc1ccc(Cl)cc1Cl`, for which the “hERG current change (%, negative = inhibition) at 10uM” value was 9.46%.

As to `Cc1ccc(-n2ncc3c(NNC(=O)c4ccco4)ncnc32)cc1Cl`, the “hERG current change (%, negative = inhibition) at 10uM” value worked out at 18.4%.

For `c1ccc2c(c1)CCN(c1nc3cc4c(cc3s1)OCO4)C2`, the “hERG current change (%, negative = inhibition) at 10uM” value came to 12.9%.

In the case of `O=C(CCc1ccncc1)NC1CCCc2c1cnn2-c1ccc(F)cc1F` (centres unmarked), the “hERG current change (%, negative = inhibition) at 10uM” value is -12.5%.

Turning to `COc1ccc(NC(=O)COC(=O)[C@@H](NC(=O)c2c(F)cccc2F)C(C)C)cc1`, the “hERG current change (%, negative = inhibition) at 10uM” value is on record as 9.54%.

Consider `CCOC(=O)c1c(C)[nH]c(C)c1C(=O)COC(=O)c1ccc(Cl)c(S(=O)(=O)NCc2ccccc2)c1`, for which the “hERG current change (%, negative = inhibition) at 10uM” value is on record as -5.18%.

With `Cc1ccc(CNC(=O)C2CC(c3ccccc3C(F)(F)F)=NO2)cc1` (centres unmarked), the “hERG current change (%, negative = inhibition) at 10uM” value is on record as -26.8%.

On to `CC(=O)c1ccc(NC(=O)N[C@@H](CC(C)C)C(=O)O)cc1`, for which the “hERG current change (%, negative = inhibition) at 10uM” value is listed as 2.99%.

For the compound `CCS(=O)(=O)Nc1cccc(C2=NN(S(=O)(=O)c3ccc(C)cc3)C(c3cccs3)C2)c1` (centres unmarked), the “hERG current change (%, negative = inhibition) at 10uM” value is reported as -7.69%.

On to `COc1cc(NC(=S)NCCC(c2ccccc2)c2ccccc2)c(OC)cc1Cl`, for which the “hERG current change (%, negative = inhibition) at 10uM” value is 13.4%.

Take `CCOC(=O)CC(=O)Nc1ccc(C(=O)OCC)cc1`: the “hERG current change (%, negative = inhibition) at 10uM” value is recorded as -18.3%.

Turning to `CCc1ccc(-c2cc(C)no2)cc1S(=O)(=O)N1CCC(C)CC1`, the “hERG current change (%, negative = inhibition) at 10uM” value is reported as -15.8%.

With `O=S(=O)(c1ccccc1)n1c(C(O)c2ccccn2)cc2ccccc21` (centres unmarked), the “hERG current change (%, negative = inhibition) at 10uM” value is recorded as -10.5%.

As for `O=C(N[C@@H](Cc1ccccc1)C(=O)NCc1ccc(F)cc1)C1CCNCC1`, the “hERG current change (%, negative = inhibition) at 10uM” value is recorded as 22.6%.

In the case of `COc1ccc(OC)c(C(=O)NC(CC(N)=O)c2ccc(NCCN3CCCCC3)c([N+](=O)[O-])c2)c1` (centres unmarked), the “hERG current change (%, negative = inhibition) at 10uM” value is on record as -6.09%.

On to `O=S(=O)(N=S(N1CCCCC1)N1CCCCC1)c1ccccc1`, for which the “hERG current change (%, negative = inhibition) at 10uM” value is recorded as -8.09%.

On to `CC[n+]1c(C)sc2sc3ccccc3c21.[I-]`, for which the “hERG current change (%, negative = inhibition) at 10uM” value amounted to 4.79%.

As for `COc1ccccc1-n1c(SCC(=O)NCC2CCCO2)nc2c([nH]c3ccccc32)c1=O` (centres unmarked), the “hERG current change (%, negative = inhibition) at 10uM” value turned out to be 9.22%.

With `Cc1ccc(-c2cnc(N)n2C)cc1C`, the “hERG current change (%, negative = inhibition) at 10uM” value is recorded as -7.74%.

Consider `COc1ccc(-c2c[n+]3c(n2-c2ccccc2)SCC3)cc1OC.[Br-]`, for which the “hERG current change (%, negative = inhibition) at 10uM” value stood at 4.92%.

`Cc1ccc(CNC(=O)CCCn2c(=O)[nH]c3ccccc3c2=O)cc1`: the “hERG current change (%, negative = inhibition) at 10uM” value turned out to be 14.5%.
